Measured values published in the supplement of paper PMC4967469.

Legend:
Experiment in all cases: Viability of human cancer cell lines after 72 h of drug (GDSC screen)
[1] = compound: CC(=O)O[C@@]12CO[C@@H]1C[C@H](O)[C@@]1(C)C(=O)[C@H](O)C3=C(C)[C@@H](OC(=O)[C@H](O)[C@@H](NC(=O)OC(C)(C)C)c4ccccc4)C[C@@](O)([C@@H](OC(=O)c4ccccc4)[C@H]21)C3(C)C [Docetaxel]; conditions: top dose 0.0125 µM
Protocol: (§1)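 Human cancer cell lines in 384-well plates, medium with 10% serum, drug for 72 h over a 256-fold dose range (nine 2-fold or five 4-fold steps up to the top dose). Adherent lines were fixed and stained with the nucleic acid dye Syto60, suspension lines read with resazurin; signal relative to control wells, capped at 0 and 100%. One two-parameter sigmoid per drug and line, fitted in a mixed model over all curves with the slope shared within a line.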

[2] = compound: CC1(C)CNc2cc(NC(=O)c3cccnc3NCc3ccncc3)ccc21 [AMG-706]; conditions: top dose 2 µM; top dose inferred
Protocol: as §1

[3] = compound: CC1=C2C[C@H]3[C@@H](CC=C4C[C@@H](O)CC[C@@]43C)[C@@H]2CC[C@]12O[C@@H]1C[C@H](C)CN[C@H]1[C@H]2C [Cyclopamine]; conditions: top dose 16 µM; top dose inferred
Protocol: as §1

[4] = compound: CCOc1nc(NC(=O)Cc2cc(OC)ccc2OC)cc(N)c1C#N [JNK Inhibitor VIII]; conditions: top dose 10 µM; top dose inferred
Protocol: as §1

[5] = compound: CN1CCN(c2ccc([N+](=O)[O-])c3no[n+]([O-])c23)CC1 [NSC-207895]; conditions: top dose 20 µM; top dose inferred
Protocol: as §1

[6] = compound: COC(=O)[C@H](CCSC)NC(=O)c1ccc(NC[C@@H](N)CS)cc1-c1ccccc1 [FTI-277]; conditions: top dose 1.024 µM; top dose inferred
Protocol: as §1

[7] = compound: COCC[n+]1c2c(n(Cc3cnccn3)c1C)C(=O)c1ccccc1C2=O [YM155]; conditions: top dose 5.12 µM
Protocol: as §1

[8] = compound: C[C@]1(O)C[C@@H](c2nc(-c3ccc4ccc(-c5ccccc5)nc4c3)c3c(N)nccn32)C1 [OSI-906]; conditions: top dose 2.56 µM; top dose inferred
Protocol: as §1

[9] = compound: Cc1ccc(C(=O)N(CCCN)[C@@H](c2nc3cc(Cl)ccc3c(=O)n2Cc2ccccc2)C(C)C)cc1 [SB-715992]; conditions: top dose 0.128 µM; top dose inferred
Protocol: as §1

[10] = compound: Cc1sc2c(c1C)C(c1ccc(Cl)cc1)=N[C@@H](CC(=O)OC(C)(C)C)c1nnc(C)n1-2 [JQ1]
Protocol: as §1

[11] = compound: O=C(/C=C/c1cccc(S(=O)(=O)Nc2ccccc2)c1)NO [Belinostat]; conditions: top dose 20 µM; top dose inferred
Protocol: as §1

[12] = compound: OCCCNc1cc(-c2ccnc(Nc3cccc(Cl)c3)n2)ccn1 [CGP-60474]; conditions: top dose 0.256 µM; top dose inferred
Protocol: as §1

[13] = compound: c1ccc2c(CCNc3ccc(Nc4ccncc4)cc3)c[nH]c2c1 [JNJ-26854165]; conditions: top dose 10 µM
Protocol: as §1

[14] = top dose 1 µM, screen: GDSC drug entry 1218, top dose inferred
[15] = top dose 2.56 µM, screen: GDSC drug entry 163

Cell Line	AUC [1]	IC50 [1]	AUC [2]	IC50 [2]	AUC [3]	IC50 [3]	AUC [4]	IC50 [4]	AUC [5]	IC50 [5]	AUC [6]	IC50 [6]	AUC [7]	IC50 [7]	AUC [8]	IC50 [8]	AUC [9]	IC50 [9]	AUC [10, 14]	IC50 [10, 14]	AUC [10, 15]	IC50 [10, 15]	AUC [11]	IC50 [11]	AUC [12]	IC50 [12]	AUC [13]	IC50 [13]
P31-FUJ (acute myeloid leukaemia, suspension)	0.982	> 0.0125 µM	0.996	> 2 µM	0.994	> 16 µM	0.993	> 10 µM	0.992	> 20 µM	0.996	> 1.02 µM	0.078	0.0221 µM	0.996	> 2.56 µM	0.986	> 0.128 µM	0.816	0.396 µM	0.996	> 2.56 µM	0.484	1.14 µM	0.981	> 0.256 µM	0.996	> 10 µM
MS-1 (small cell lung carcinoma, suspension)	0.949	> 0.0125 µM	0.991	> 2 µM	0.962	> 16 µM	0.991	> 10 µM	0.921	> 20 µM	0.989	> 1.02 µM	0.08	< 0.02 µM	0.827	1.34 µM	0.734	0.034 µM	0.991	> 1 µM	0.795	1.05 µM	0.195	0.177 µM	0.783	0.0957 µM	0.956	> 10 µM
TGBC1TKB (biliary tract, adherent)	0.83	0.0078 µM	0.976	> 2 µM	0.983	> 16 µM	0.979	> 10 µM	0.759	6.93 µM	0.984	> 1.02 µM	0.03	< 0.02 µM	0.977	> 2.56 µM	0.985	> 0.128 µM	0.988	> 1 µM	0.902	> 2.56 µM	0.511	1.34 µM	0.575	0.0256 µM	0.944	> 10 µM
YT (lymphoid neoplasm, suspension)	0.979	> 0.0125 µM	0.969	> 2 µM	0.992	> 16 µM	0.965	> 10 µM	0.809	8.59 µM	0.944	> 1.02 µM	0.038	< 0.02 µM	0.982	> 2.56 µM	0.958	> 0.128 µM	0.991	> 1 µM	0.551	0.215 µM	0.095	0.0786 µM	0.976	> 0.256 µM	0.948	> 10 µM
SK-UT-1 (soft tissue, adherent)	0.716	0.00298 µM	0.971	> 2 µM	0.968	> 16 µM	0.983	> 10 µM	0.949	> 20 µM	0.977	> 1.02 µM	0.229	0.0572 µM	0.981	> 2.56 µM	0.717	0.0309 µM	0.98	> 1 µM	0.598	0.289 µM	0.913	> 20 µM	0.769	0.0885 µM	0.965	> 10 µM
TGW (neuroblastoma, adherent)	0.964	> 0.0125 µM	0.989	> 2 µM	0.989	> 16 µM	0.99	> 10 µM	0.883	16.2 µM	0.991	> 1.02 µM	0.18	0.0424 µM	0.881	2.03 µM	0.672	0.0223 µM	0.981	> 1 µM	0.833	1.33 µM	0.202	0.195 µM	0.757		0.931	> 10 µM
MZ2-MEL (melanoma, adherent)	0.73	0.004 µM	0.682	0.444 µM	0.979	> 16 µM	0.802	5.95 µM	0.909	> 20 µM	0.958	> 1.02 µM	0.082	< 0.02 µM	0.844	2.33 µM	0.875	> 0.128 µM	0.967	> 1 µM	0.86	> 2.56 µM	0.647	3.43 µM	0.675	0.0541 µM	0.966	> 10 µM
KE-37 (lymphoblastic leukaemia, suspension)	0.947	> 0.0125 µM	0.994	> 2 µM	0.928	15.5 µM	0.984	> 10 µM	0.895	14.2 µM	0.978	> 1.02 µM	0.012	< 0.02 µM	0.986	> 2.56 µM	0.437	0.0056 µM	0.694	0.188 µM	0.489	0.15 µM	0.176	0.187 µM	0.735	0.0612 µM	0.897	7.22 µM
NB10 (neuroblastoma, adherent)	0.895	> 0.0125 µM	0.988	> 2 µM	0.981	> 16 µM	0.972	> 10 µM	0.987	> 20 µM	0.987	> 1.02 µM	0.766	1.84 µM	0.676	0.488 µM	0.814	0.0678 µM	0.987	> 1 µM	0.833	1.59 µM	0.459	0.967 µM	0.961	> 0.256 µM	0.862	8.19 µM

By IC50 is meant the dose at which the fit gives 50% viability; fits outside the tested doses are given as limits. AUC, from the same fit, is the share of area under the viability curve across the 256-fold dose range; values near 1 show little effect. For some assays here: The top dose, if marked as inferred, comes from the curve model; the source does not state it. For some assays here: Where an entry number is given, a second screen of the drug exists; the two often differ.
